In publication PMC9911399, “Two distinct binding modes provide the RNA-binding protein RbFox with extraordinary sequence specificity” one finds binding signal data, which are given here for 31 molecules.

Substitutions are numbered along the chain they refer to; changes in the protein carry UniProt numbers. This is one part of the list.

B1: UGGUUCA (DNA:RNA)
RNA: GGGAGACCGGAAUUCAGAUUGUCCUGGUUCAUUAAAUCCCGUCGUAGCCACCA
DNA 1: CAATCTGAATTCCGGTCTCCC
DNA 2: TGGTGGCTACGACGGGATT
B2: AGAUCCU (DNA:RNA)
RNA: B1 RNA with U25A, G27A, U29C, A31U
DNA 1: CAATCTGAATTCCGGTCTCCC
DNA 2: TGGTGGCTACGACGGGATT
B3: AGGCUCA (DNA:RNA)
RNA: B1 RNA with U25A, U28C
DNA 1: CAATCTGAATTCCGGTCTCCC
DNA 2: TGGTGGCTACGACGGGATT
B4: UCUUUCU (DNA:RNA)
RNA: B1 RNA with G26C, G27U, A31U
DNA 1: CAATCTGAATTCCGGTCTCCC
DNA 2: TGGTGGCTACGACGGGATT
B5: CCUCUAC (DNA:RNA)
RNA: B1 RNA with U25C, G26C, G27U, U28C, C30A, A31C
DNA 1: CAATCTGAATTCCGGTCTCCC
DNA 2: TGGTGGCTACGACGGGATT
B6: CGAUGAG (DNA:RNA)
RNA: B1 RNA with U25C, G27A, U29G, C30A, A31G
DNA 1: CAATCTGAATTCCGGTCTCCC
DNA 2: TGGTGGCTACGACGGGATT
B7: CAGAUAA (DNA:RNA)
RNA: B1 RNA with U25C, G26A, U28A, C30A
DNA 1: CAATCTGAATTCCGGTCTCCC
DNA 2: TGGTGGCTACGACGGGATT
B8: CUGAAGU (DNA:RNA)
RNA: B1 RNA with U25C, G26U, U28A, U29A, C30G, A31U
DNA 1: CAATCTGAATTCCGGTCTCCC
DNA 2: TGGTGGCTACGACGGGATT
B9: CGAAAUC (DNA:RNA)
RNA: B1 RNA with U25C, G27A, U28A, U29A, C30U, A31C
DNA 1: CAATCTGAATTCCGGTCTCCC
DNA 2: TGGTGGCTACGACGGGATT
B10: CUAGGGU (DNA:RNA)
RNA: GGGAGACCGGAAUUCAGAUUGUCCCUAGGGUUUAAAUCCCGUCGUAGCCACCA
DNA 1: CAATCTGAATTCCGGTCTCCC
DNA 2: TGGTGGCTACGACGGGATT
B11: CUCGGUC (DNA:RNA)
RNA: B10 RNA with A27C, G30U, U31C
DNA 1: CAATCTGAATTCCGGTCTCCC
DNA 2: TGGTGGCTACGACGGGATT
B12: CUGAUGU (DNA:RNA)
RNA: B10 RNA with A27G, G28A, G29U
DNA 1: CAATCTGAATTCCGGTCTCCC
DNA 2: TGGTGGCTACGACGGGATT
B13: AGGGCAA (DNA:RNA)
RNA: B1 RNA with U25A, U28G, U29C, C30A
DNA 1: CAATCTGAATTCCGGTCTCCC
DNA 2: TGGTGGCTACGACGGGATT
B14: UAAAACG (DNA:RNA)
RNA: B1 RNA with G26A, G27A, U28A, U29A, A31G
DNA 1: CAATCTGAATTCCGGTCTCCC
DNA 2: TGGTGGCTACGACGGGATT
B15: ACUUGUA (DNA:RNA)
RNA: B1 RNA with U25A, G26C, G27U, U29G, C30U
DNA 1: CAATCTGAATTCCGGTCTCCC
DNA 2: TGGTGGCTACGACGGGATT
B16: GAAGUGG (DNA:RNA)
RNA: B10 RNA with C25G, U26A, G29U, U31G
DNA 1: CAATCTGAATTCCGGTCTCCC
DNA 2: TGGTGGCTACGACGGGATT
B17: CUAGAAA (DNA:RNA)
RNA: B10 RNA with G29A, G30A, U31A
DNA 1: CAATCTGAATTCCGGTCTCCC
DNA 2: TGGTGGCTACGACGGGATT
B18: UCACUAA (DNA:RNA)
RNA: B1 RNA with G26C, G27A, U28C, C30A
DNA 1: CAATCTGAATTCCGGTCTCCC
DNA 2: TGGTGGCTACGACGGGATT
B19: UACUAAU (DNA:RNA)
RNA: B1 RNA with G26A, G27C, U29A, C30A, A31U
DNA 1: CAATCTGAATTCCGGTCTCCC
DNA 2: TGGTGGCTACGACGGGATT
B20: CGCUUCU (DNA:RNA)
RNA: B1 RNA with U25C, G27C, A31U
DNA 1: CAATCTGAATTCCGGTCTCCC
DNA 2: TGGTGGCTACGACGGGATT
B21: UGACUGG (DNA:RNA)
RNA: B1 RNA with G27A, U28C, C30G, A31G
DNA 1: CAATCTGAATTCCGGTCTCCC
DNA 2: TGGTGGCTACGACGGGATT
B22: CACACUA (DNA:RNA)
RNA: B10 RNA with U26A, A27C, G28A, G29C, G30U, U31A
DNA 1: CAATCTGAATTCCGGTCTCCC
DNA 2: TGGTGGCTACGACGGGATT
B23: CACGGGA (DNA:RNA)
RNA: B10 RNA with U26A, A27C, U31A
DNA 1: CAATCTGAATTCCGGTCTCCC
DNA 2: TGGTGGCTACGACGGGATT
B24: GUAAUCA (DNA:RNA)
RNA: B1 RNA with U25G, G26U, G27A, U28A
DNA 1: CAATCTGAATTCCGGTCTCCC
DNA 2: TGGTGGCTACGACGGGATT
B25: UAAUACC (DNA:RNA)
RNA: B1 RNA with G26A, G27A, U29A, A31C
DNA 1: CAATCTGAATTCCGGTCTCCC
DNA 2: TGGTGGCTACGACGGGATT
B26: GGCGAGC (DNA:RNA)
RNA: B10 RNA with C25G, U26G, A27C, G29A, U31C
DNA 1: CAATCTGAATTCCGGTCTCCC
DNA 2: TGGTGGCTACGACGGGATT
B27: CACGAAA (DNA:RNA)
RNA: B10 RNA with U26A, A27C, G29A, G30A, U31A
DNA 1: CAATCTGAATTCCGGTCTCCC
DNA 2: TGGTGGCTACGACGGGATT
B28: CAGCGGC (DNA:RNA)
RNA: B10 RNA with U26A, A27G, G28C, U31C
DNA 1: CAATCTGAATTCCGGTCTCCC
DNA 2: TGGTGGCTACGACGGGATT
B29: CCUGGAU (DNA:RNA)
RNA: B10 RNA with U26C, A27U, G30A
DNA 1: CAATCTGAATTCCGGTCTCCC
DNA 2: TGGTGGCTACGACGGGATT
B30: UGGGGGC (DNA:RNA)
RNA: B10 RNA with C25U, U26G, A27G, U31C
DNA 1: CAATCTGAATTCCGGTCTCCC
DNA 2: TGGTGGCTACGACGGGATT
B31: AUUUGUA (DNA:RNA)
RNA: B10 RNA with C25A, A27U, G28U, G30U, U31A
DNA 1: CAATCTGAATTCCGGTCTCCC
DNA 2: TGGTGGCTACGACGGGATT

This assay concerns the target T1, RBFOX1 RRM RbFoxmut (Fox-RRM*) (Homo sapiens, UniProt Q9NWB1 109-208, R118D;E147R;N151S;E152T).
T1 sequence: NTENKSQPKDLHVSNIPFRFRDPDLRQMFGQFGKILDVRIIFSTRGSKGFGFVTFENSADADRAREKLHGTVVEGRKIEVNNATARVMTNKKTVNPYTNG
Description: EMSA; HiTS-Eq, 1 nM pool, 10 min; buffer printed only for the single-RNA assays: 10 mM Tris pH 7.5, 150 mM NaCl, 3.4 mM EDTA, 0.001% NP-40, 30 C. As to conditions: tags: His6 N-terminal (pET28a); label: 5' 32P. A digest of the protocol:
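A pool of RNA with 7 randomized nucleotides, 5′-radiolabelled and with DNA-annealed flanks, was equilibrated at 1 nM for 10 min in 50 µL with purified RbFox RRM, wild type or mutant, across increasing protein concentrations. Free RNA was separated by 8% native PAGE, excised, reverse-transcribed, barcoded by PCR and sequenced. Relative association constants were obtained from read-count changes of each RNA species versus the control reaction and normalised to the cognate motif.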
(In general: Mobility shift assays separate free from complexed probe on a gel.)
For B1, the binding signal is 0.19 KA relative to UGCAUGU.

For B2, the binding signal is 0.0668 KA relative to UGCAUGU.

Take B3: the binding signal is 0.0858 KA relative to UGCAUGU.

For B4, the binding signal is 0.0669 KA relative to UGCAUGU.

As to B5, the binding signal is 0.0802 KA relative to UGCAUGU.

In the case of B6, the binding signal is 0.133 KA relative to UGCAUGU.

As for B7, the binding signal was 0.0712 KA relative to UGCAUGU.

For the molecule B8, the binding signal was 0.0845 KA relative to UGCAUGU.

Regarding B9, the binding signal is 0.0333 KA relative to UGCAUGU.

With B10, the binding signal was 0.086 KA relative to UGCAUGU.

With B11, the binding signal was 0.169 KA relative to UGCAUGU.

Take B12: the binding signal is 0.134 KA relative to UGCAUGU.

For B13, the binding signal is 0.0595 KA relative to UGCAUGU.

With B14, the binding signal was 0.0871 KA relative to UGCAUGU.

As for B15, the binding signal is 0.244 KA relative to UGCAUGU.

With B16, the binding signal was 0.074 KA relative to UGCAUGU.

Take B17: the binding signal was 0.0743 KA relative to UGCAUGU.

Consider B18, for which the binding signal was 0.0904 KA relative to UGCAUGU.

B19: the binding signal was 0.0783 KA relative to UGCAUGU.

For B20, the binding signal was 0.102 KA relative to UGCAUGU.

Take B21: the binding signal was 0.163 KA relative to UGCAUGU.

On to B22, for which the binding signal was 0.138 KA relative to UGCAUGU.

As for B23, the binding signal is 0.0633 KA relative to UGCAUGU.

Regarding B24, the binding signal was 0.0865 KA relative to UGCAUGU.

As to B25, the binding signal is 0.0785 KA relative to UGCAUGU.

With B26, the binding signal is 0.0827 KA relative to UGCAUGU.

Regarding B27, the binding signal is 0.0962 KA relative to UGCAUGU.

In the case of B28, the binding signal was 0.0803 KA relative to UGCAUGU.

As for B29, the binding signal is 0.0641 KA relative to UGCAUGU.

As for B30, the binding signal was 0.0983 KA relative to UGCAUGU.

Take B31: the binding signal is 0.258 KA relative to UGCAUGU.
